According to PubChem BioAssay AID588855 (National Center for Advancing Translational Sciences (NCATS), 2011):
Out of some 410,000 compounds screened, about 5,000 (1.2%) were called active. The shares of active, inactive and inconclusive entries below differ from those in the screen. Calls come from the whole dose curve; as a rule, active = well fitted inhibition curve with a large enough effect; inconclusive = small, poorly fitted or top-dose-only effect; inactive = no such curve, though single readings can be large or run the other way. Potencies beside an inconclusive call are fits to weak or partial responses and may not hold up.

assay: qHTS for Inhibitors of TGF-b; conditions: HepG2 CAGA-GFP TGF-b/SMAD3 reporter, GFP fluorescence, 18 h, TGF-beta stimulated, 500 pg/mL final; series mostly up to 46.1 µM; note: nearly all actives have a fitted effect of over 65% in size
In short: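 Inhibition was scored as loss of TGF-beta-induced (500 pg/mL final, 18 hours, 37 degrees C) GFP in HEPG2 cells carrying a CAGA-GFP reporter, in DMEM with 1% FBS. Well GFP was summed per cell; Activity was normalised to unstimulated and stimulated DMSO wells, then concentration-response fitting.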
Potency is the fitted concentration of half-maximal effect; tags give direction and shape of the fitted curve.

SMILES | Potency
O=C(CN1C2=NCCN2c2ccccc21)c1ccc(Br)cc1 | inconclusive: 35.5 µM [inhibitor, single point]
CNC(=S)NCCCc1ccccc1 | inconclusive: 35.5 µM [inhibitor, single point]
CCOC(=O)CN1C(=O)NC2(CCCc3ccccc32)C1=O (stereo not drawn) | inactive
Cc1cc(C)c(C(=O)OCC(=O)Nc2cccc(S(=O)(=O)N3CCCCC3)c2)c(C)c1 | inconclusive: 22.4 µM [inhibitor, single point]
O=C(CSc1nnc(-c2cccnc2)n1Cc1ccccc1)NCc1ccccc1 | inconclusive: 1.78 µM [inhibitor, full curve, poor fit]
COc1ccc(C2=NOC(C(=O)NCc3ccco3)C2)cc1 (stereo not drawn) | inactive
Cc1noc(C)c1S(=O)(=O)N(CC(=O)N1CCCCCC1)c1ccc(C(C)C)cc1 | inconclusive: 0.562 µM [inhibitor, full curve, poor fit]
COc1ccc(C(C)=O)cc1CSc1nc(NCCc2ccccc2)c2ccccc2n1 | inconclusive: 3.98 µM [inhibitor, single point]
CCOC(=O)c1[nH]c2cc3c(cc2c1NC(=O)CN1CC(C)CC(C)C1)OCO3 (stereo not drawn) | inconclusive: 6.31 µM [inhibitor, single point]
CCc1ccccc1NC(=O)CN1CCCN(Cc2cc(C)ccc2C)S1(=O)=O | active: 17.8 µM
CC(C)C(OC(=O)/C=C/c1ccc2c(c1)OCO2)C(=O)NC(N)=O (stereo not drawn) | inconclusive: 20 µM [inhibitor, partial curve, poor fit]
CN(C)c1cc(NC(=O)CNC(C)(C)C)c2ccccc2n1 | inconclusive: 2.82 µM [inhibitor, partial curve, poor fit]
CC(=O)Nc1ccc(/C=C(\C#N)C(=O)NCc2ccccc2)cc1 | inactive
Cc1ccc(Cl)cc1-c1cc(C(=O)N2CCc3ccccc3C2)[nH]n1 | inconclusive: 35.5 µM [inhibitor, single point]
O=C(COC(=O)/C=C/c1cccc(F)c1)Nc1ccccc1-c1ccccc1 | inactive
COC(=O)CNC(=O)/C=C/c1ccc(OC)cc1 | inactive
Cc1ccc(NS(=O)(=O)c2cc(-c3cnc(C4CC4)o3)ccc2C)cc1Cl | active: 7.08 µM
Nc1c(C(=O)Nc2ccccc2F)sc2nc3c(cc12)CCCCCC3 | inactive
COc1cccc(C(C(=O)NC2CCCC2)N(C(=O)c2csnn2)C2CC2)c1 (stereo not drawn) | inconclusive: 12.6 µM [inhibitor, single point]
O=C(c1ccc(F)cc1)N1CCN=C1c1ccccc1 | inactive
Cc1ccc(C(=O)COC(=O)c2cccc(NC(=O)c3ccc(Cl)cc3Cl)c2)cc1 | inconclusive: 35.5 µM [inhibitor, single point]
CCC(C(=O)NCc1ccc(OC)c(OC)c1)n1nc(C)c2c(C)n(-c3ccc(C)cc3)nc2c1=O (stereo not drawn) | inconclusive: 4.47 µM [inhibitor, full curve]

SMILES | Potency
CCOC(=O)c1c(NC(=O)c2cc3nc(-c4ccc(Br)cc4)cc(C(F)(F)F)n3n2)sc(C(C)=O)c1C | inactive
COc1ccccc1C(=O)N(CCC1CCCN1C)c1nc2ccccc2s1 (stereo not drawn) | inconclusive: 4.47 µM [inhibitor, partial curve, poor fit]
CCOc1ccccc1NC(=O)CCNS(=O)(=O)c1cccc2nonc12 | inconclusive: 20 µM [inhibitor, single point]
Cc1ccc(C)c(NC(=O)Cn2cc(C(=O)c3cccs3)c3ccccc32)c1 | inconclusive: 22.4 µM [inhibitor, single point]
Cc1ccc(-c2nnn(CC(=O)N(c3ccccc3)C(C(=O)NC3CCCC3)c3ccncc3)n2)o1 (stereo not drawn) | inactive
COc1cc(C(=O)Nc2ccc3c(c2)N(C2CCCC2)C(=O)c2ccccc2S3)cc(OC)c1OC | inconclusive: 35.5 µM [inhibitor, single point]
CC(=O)c1ccccc1OCC(O)Cn1c(CO)nc2ccccc21 (stereo not drawn) | inactive
O=C(COc1coc(CN2CCCc3ccccc32)cc1=O)Nc1ccccc1 | inactive
O=C(Nc1ccc(Br)cc1F)N1CC=C(c2c[nH]c3ccccc23)CC1 | inconclusive: 7.08 µM [inhibitor, partial curve, poor fit]
COc1cc(OC)c(NS(=O)(=O)c2ccc(Cl)c(C(=O)OC(C)C(=O)N3CCCC3)c2)cc1Cl (stereo not drawn) | inconclusive: 2.51 µM [inhibitor, partial curve, poor fit]
O=C(O)c1cccc(NC2=C(Cl)C(=O)c3ccccc3C2=O)c1 | inconclusive: 15.8 µM [inhibitor, partial curve, poor fit]
Cc1cc(C(=O)OCC(=O)NC(C)c2ccc(F)cc2)c(C)o1 (stereo not drawn) | inconclusive: 22.4 µM [inhibitor, single point]
O=S(=O)(Nc1ccc(Cc2ccncc2)cc1)c1ccc(Cl)c(Cl)c1 | inconclusive: 20 µM [inhibitor, single point]
CCO[C@@H]1OC(C(=O)Nc2ccccc2)=C[C@H](c2ccc3c(c2)OCO3)[C@H]1CCCO | inconclusive: 35.5 µM [inhibitor, partial curve, poor fit]
O=C(NCCCN1CCN(Cc2ccccc2)CC1)c1nnc(Cc2c(F)cccc2Cl)o1 | inconclusive: 2.51 µM [inhibitor, partial curve, poor fit]
C/C=C\C=C\C(=O)Nc1cccc(C2=NOC3(C2)C[C@@H](C(N)=O)N(C(=O)C(c2ccccc2)c2ccccc2)C3)c1 (stereo partly drawn) | inconclusive: 17.8 µM [inhibitor, single point]
O=[N+]([O-])c1nc2ccccc2[nH]1 | inconclusive: 35.5 µM [inhibitor, partial curve, poor fit]
CN(C)c1ccc(NC(=O)Nc2ccc3c(c2)c(=O)n(C)n3-c2ccccc2)cc1 | inactive
O=C(N/N=C1/CCSC1)c1cc(Br)ccc1O | inactive
Nc1ccc(N2CCCCC2)cc1N1CCCCC1 | active: 10 µM
CN(C)CCn1c(=O)n(-c2cccc(Cl)c2)c(=O)c2c3c(sc21)CCCCC3 | inconclusive: 35.5 µM [inhibitor, partial curve, poor fit]
